Where “and” joins values, the source holds several entries; their conditions need not be identical. Equal entries are not always repeated. About 7,500 (2.1%) of roughly 360,000 compounds were called active. Inconclusive means that the source gave no clear call. Such entries were picked first, then a sample of the others. Calls follow the shape of the dose curve; as a rule, active = well fitted cell-killing curve with a large enough effect; inconclusive = small, poorly fitted or top-dose-only effect, or effect the other way, or another doubt; inactive = no such curve, though single readings can be large or run the other way. A potency beside an inconclusive call is a rough fit, not a confirmed value.
Assay: qHTS for induction of synthetic lethality in tumor cells producing 2HG: qHTS for the HT-1080-IDH1KD cell line;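 as to activity, negative = toxicity: 0% = DMSO wells and -100% = cell-free medium wells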
Settings: HT-1080 IDH1 knockdown viability, ATP luminescence, 48 h; activity, negative = toxicity: at 46.1 µM (top of the series) unless noted
Summary of the method: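 HT-1080-IDH1KD cells (IDH1 knocked down), 750/well in RPMI with 5% FBS, treated with compound 48 h at 37 degrees C. Viability by CellTiter-Glo luminescence, normalised to DMSO and no-cell wells; concentration-response curves classed.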
Potency is read from the fitted curve at half-maximal effect; tags tell the direction and shape of the fitted curve.

Compound	Potency	activity, negative = toxicity
Cc1ccc(N=C2NC(=O)/C(=C/c3cccn3C)S2)cc1	active: 10.3 µM	
CCOC(=O)c1ccc(N=c2sc(C(=O)OC)cc(=O)n2CCCN2CCOCC2)cc1	inconclusive: 20.6 µM [cytotoxic, single point] and inconclusive: 29.1 µM [cytotoxic, single point]	
O=C(/C=C/c1ccc(S(=O)(=O)NCc2ccco2)cc1)NCc1ccccc1Cl	inconclusive: 20.6 µM [cytotoxic, single point]	
CCc1ccc2[nH]c(=O)c(CN(Cc3ccc4c(c3)OCO4)Cc3nnnn3C3CCCC3)cc2c1	inconclusive: 22.4 µM [cytotoxic, single point]	
O=C(OCC(=O)N1CCN(C(=O)c2ccco2)CC1)c1cc(-c2ccc(Cl)c(Cl)c2Cl)nc2ccccc12	inconclusive: 29.1 µM [cytotoxic, single point]	
Cc1cc(NC(=O)c2ccc3c(c2)OCCO3)ccc1NC(=O)c1cc2ccccc2o1	inconclusive: 18.4 µM [cytotoxic, partial curve]	
CC(C)(C)c1ccc(S(=O)(=O)NNC(=O)c2cc3ccccc3[nH]2)cc1	active: 20.6 µM	
O=C(NCc1nc(-c2ccc(C(F)(F)F)cc2)no1)Nc1ccc(OC(F)(F)F)cc1	inconclusive: 29.1 µM [cytotoxic, single point]	
O=C(Nc1cnc2ccccc2c1)c1cccnc1	inconclusive: 18.4 µM [cytotoxic, single point]	
COC(=O)c1cc(=O)n(CCc2ccc(OC)cc2)c(=Nc2ccc(F)c(Cl)c2)s1	inconclusive: 25.9 µM [cytotoxic, single point]	
COCCN1CCN(Cc2nc(Cc3ccc(OC)c(OC)c3)no2)CC1	inactive	
COc1ccc2c(c1)C(=O)N1[C@H]3c4cc(Br)ccc4OC[C@@H]3[C@H](c3ccccc3)[C@]1(C)C(=O)N2	inconclusive: 5.8 µM [cytotoxic, full curve]	
Cc1cccc(OCc2nnc(SCC(=O)N3c4ccccc4CCc4ccccc43)o2)c1	inactive	
O=C(Nc1ccc(S(=O)(=O)N2CCOCC2)cc1)c1cc([N+](=O)[O-])ccc1Cl	inconclusive: 20.6 µM [cytotoxic, partial curve]	
CCOc1ccc(NC(=O)c2cc(OC)nc3ccccc23)cc1	active: 0.461 µM	
COC(=O)c1ccc(COC(=O)c2ccc(CS(=O)(=O)c3ccc(C)cc3)cc2)cc1	inconclusive: 23.1 µM [cytotoxic, single point]	
COc1ccccc1C(=O)NNC(=O)c1cccc(C)c1	inactive	
COc1ccc2c(c1)[C@H]1[C@H](CO2)[C@H](c2ccccc2)[C@]2(C)C(=O)Nc3cc(F)ccc3C(=O)N12	inconclusive: 29.1 µM [cytotoxic, single point]	
COc1ccc(C(=O)N=C2SC3CS(=O)(=O)CC3N2Cc2ccc(F)cc2)cc1 (configuration not stated)	inconclusive: 29.1 µM [cytotoxic, single point]	
O=C(NC1CCCCC1)C(c1ccc(F)cc1)N(CCc1ccccc1)C(=O)CN1C(=O)c2ccccc2S1(=O)=O (configuration not stated)	inconclusive: 10.3 µM [cytotoxic, partial curve]	
NS(=O)(=O)c1ccc(Sc2nc3ccccc3s2)c([N+](=O)[O-])c1	active: 7.31 µM	
CCOc1cccc(C2C(C(=O)c3ccc(C)o3)=C(O)C(=O)N2Cc2ccncc2)c1 (configuration not stated)	inactive	
CC[C@]12c3[nH]c4cc(CCC(=O)N(C)C)ccc4c3CCN1C(=O)[C@@H](CC(=O)NC/C=C(\C)CCC=C(C)C)C[C@@H]2C(=O)N1CCN(C(=O)c2ccco2)CC1	active: 20.6 µM	

Compound	Potency	activity, negative = toxicity
Cn1ncc2c(O/N=C(\N)c3ccc(C(F)(F)F)cc3)ncnc21	active: 16.4 µM	
COc1ccc(S(=O)(=O)N2CCC(C(=O)NCc3ccccn3)CC2)cc1C	inactive	
COc1ccc(NCC(=O)n2c(C)c(C)c3ccccc32)cc1	inconclusive: 20.6 µM [cytotoxic, single point]	
CC(=O)c1cccc(CN2CCN(C(C)C)C(CCO)C2)c1 (configuration not stated)	inactive	
CC(=O)OCC1OC(n2cc(F)c(=O)[nH]c2=O)C(OC(C)=O)C1OC(C)=O (configuration not stated)	inconclusive: 11.6 µM [cytotoxic, partial curve]	
Cc1c(C(=O)Oc2cccc3cccnc23)cccc1[N+](=O)[O-]	inconclusive: 23.1 µM [cytotoxic, single point]	
CSc1nc(N)c(C(=O)NC2CCCCC2)s1	inactive	
COc1ccc(OC)c2cc3ccccc3cc12	inconclusive: 23.1 µM [cytotoxic, single point]	
O=C(NC(c1ccccc1)c1ccc2ccccc2n1)C1CCN(CCOc2ccc(Cl)cc2)CC1 (configuration not stated)	active: 4.11 µM	
Cn1c(-c2ccc3c(c2)OCO3)cnc1NCc1ccccc1Cl	inactive	
O=C(NNc1ccccn1)C(=O)NNS(=O)(=O)c1ccc(Cl)cc1	inconclusive: 18.4 µM [cytotoxic, single point]	
O=C(CCCn1nnnc1CN1CCOCC1)N1CCC(c2ccc(F)cc2)C1 (configuration not stated)		inconclusive: -15.9% [cytotoxic]
COc1ccccc1-n1cnc2cc(NCc3cccs3)ccc21	active: 2.06 µM	
Cc1c(NC(=O)CN2CC(C)OC(C)C2)c(=O)n(-c2ccccc2)n1C (configuration not stated)		inconclusive: 3.57%
COc1cccc(C(=O)c2c(C)c(CCC#N)n3ccccc23)c1	inactive	
CCOc1ccc(/C=C/C(=O)c2c(O)c3ccccc3oc2=O)cc1	inconclusive: 29.1 µM [cytotoxic, partial curve, poor fit]	
Cc1cc(NC(=O)c2cnn3c(C(F)(F)F)cc(-c4ccc(Br)cc4)nc23)no1		inconclusive: 9.52%
Cc1nc2ccccc2n1Cc1ccccc1Br	inconclusive: 20.6 µM [cytotoxic, single point]	
O=C(c1ccc(S(=O)(=O)N2CCCCCC2)cc1)N1CCC(CN2C(=O)c3cccc4cccc(c34)C2=O)CC1	inactive	
Cc1ccc(N2CC(C(=O)N3CCN(Cc4ccc5c(c4)OCO5)CC3)CC2=O)cc1 (configuration not stated)	inactive	
CCCOc1ccc(C(=O)Nc2ccc(S(=O)(=O)N3C[C@@H]4C[C@@H](C3)c3cccc(=O)n3C4)cc2)cc1	inconclusive: 25.9 µM [cytotoxic, single point]	
Cc1cc(=O)[nH]c(SCC(=O)Nc2cccc3ccccc23)c1C#N	inconclusive: 22.4 µM [cytotoxic, partial curve]	
CCOC(=O)c1c(C)sc2c1N(C(=O)CN1CCOCC1)c1cc(Cl)ccc1S2	inconclusive: 18.4 µM [cytotoxic, single point]	

Compound	Potency	activity, negative = toxicity
Nc1c(C(=O)NCc2ccco2)c2nc3ccccc3nc2n1CCc1ccc(F)cc1	inconclusive: 29.1 µM [cytotoxic, single point]	
CCOC(=O)N1CCC(NCCNC(=O)c2cccs2)CC1	inactive	
CNc1nc(NCc2cccc(OC)c2)c2sccc2n1	inconclusive: 8.2 µM [cytotoxic, partial curve]	
CCOc1ccc(/C=C2/Sc3ccc(C(=O)N4CCOCC4)cc3N(C)C2=O)cc1OC	inconclusive: 7.31 µM [cytotoxic, partial curve]	
Cc1cccc(C)c1-n1nnnc1C(c1cccs1)N1CCN(C/C=C/c2ccccc2)CC1 (configuration not stated)	inconclusive: 23.1 µM [cytotoxic, single point]	
CNC(=O)/C(C#N)=C/c1c(N(Cc2ccccc2)Cc2ccccc2)nc2c(C)cccn2c1=O	inconclusive: 23.1 µM [cytotoxic, single point]	
CCCn1c(/N=C/c2ccc3c(c2)OCO3)nc2ccccc21	inactive	
CS(=O)(=O)N(CC(=O)Nc1ccc(Br)cc1)C1CCCCC1	inconclusive: 29.1 µM [cytotoxic, single point]	
CC(C)(C)OC(=O)NCc1ccc(NC(=O)c2nc[nH]c2C(=O)NCCNC(=O)c2[nH]cnc2C(=O)Nc2ccc(CNC(=O)OC(C)(C)C)cc2)cc1	active: 13 µM	
CN(C)C(=O)COC(=O)c1ccccc1Nc1ccc(SC(F)F)cc1	inconclusive: 5.17 µM [cytotoxic, full curve]	
O=C(c1ccc2c(c1)OCO2)N1CCNc2ccccc2C1	inconclusive: 10.3 µM [rising, partial curve]	
COc1cccc(OC)c1C(=O)Nc1c(C)n(C)n(-c2ccccc2)c1=O		inconclusive: 15.3%
NNC(=O)c1oc2ccccc2c1-n1cccc1	active: 4.11 µM	
COC(=O)[C@@]1(Cc2ccc(F)cc2)[C@H]2c3cc(C(=O)N(C)C)n(Cc4ccc(C)c(F)c4F)c3C[C@H]2CN1C(=O)c1ccccc1	inconclusive: 29.1 µM [cytotoxic, single point]	
CC(C)(C)c1ccc(N=C2SCC(=O)N2Cc2cccs2)cc1	inconclusive: 29.1 µM [cytotoxic, single point]	
O=C1C=C(Nc2ccc(F)cc2)c2ccccc2C1=O	inconclusive: 18.4 µM [cytotoxic, single point]	
CC(C)c1nc2sc3c(SCC(=O)NCc4ccco4)ncnc3c2c2c1CCC2	inconclusive: 29.1 µM [cytotoxic, single point]	
COc1ccc(CC(=O)Nc2nc3ccc(F)cc3s2)cc1S(=O)(=O)N1CCOCC1		inconclusive: -30.4% [cytotoxic]
Cc1ccc(/C=N/Nc2ncc(Cl)cc2Cl)s1	active: 7.08 µM	
O=S(=O)(/C=C/C=C/S(=O)(=O)c1ccccc1)c1ccccc1	active: 1.3 µM	
Cc1nn(-c2ccc(F)cc2)c(C)c1NS(=O)(=O)c1ccc(Cl)cc1		inconclusive: -32.5% [cytotoxic]
